Assay results: the supplement of paper PMC6746778
The other results are listed elsewhere or left out. Many values rest on one well or one pass, so single values are uncertain.

Legend:
Assay in all cases: proliferation Z-score within cell line (SRB, relative to all inhibitors screened on that line); triple-negative breast cancer lines and a kinase inhibitor library; SRB is the sulforhodamine B protein stain; higher = less growth inhibition (more resistant)
Settings in all cases: concentration: 1 µM; 4 days
Bt20 = system: Bt20
Bt549 = system: Bt549
HCC1143 = system: HCC1143
HCC1806 = system: HCC1806
HCC1937 = system: HCC1937
HCC38 = system: HCC38
HCC70 = system: HCC70
Hs578T = system: Hs578T
MDA-MB-231 = system: MDA-MB-231
MDA-MB-435s = system: MDA-MB-435s
MDA-MB-436 = system: MDA-MB-436
MDA-MB-453 = system: MDA-MB-453
MDA-MB-468 = system: MDA-MB-468
SKBR7 = system: SKBR7
SUM1315MO2 = system: SUM1315MO2
SUM149PT = system: SUM149PT
SUM159PT = system: SUM159PT
SUM185PE = system: SUM185PE
SUM229PE = system: SUM229PE
SUM52PE = system: SUM52PE
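Also: Single-dose primary screen of a 378-member kinase inhibitor library in 96-well plates, with growth read as absorbance of protein-bound SRB dye after TCA fixation.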

| SMILES | proliferation Z-score within cell line (Bt20) | proliferation Z-score within cell line (Bt549) | proliferation Z-score within cell line (HCC1143) | proliferation Z-score within cell line (HCC1806) | proliferation Z-score within cell line (HCC1937) | proliferation Z-score within cell line (HCC38) | proliferation Z-score within cell line (HCC70) | proliferation Z-score within cell line (Hs578T) | proliferation Z-score within cell line (MDA-MB-231) | proliferation Z-score within cell line (MDA-MB-435s) | proliferation Z-score within cell line (MDA-MB-436) | proliferation Z-score within cell line (MDA-MB-453) | proliferation Z-score within cell line (MDA-MB-468) | proliferation Z-score within cell line (SKBR7) | proliferation Z-score within cell line (SUM1315MO2) | proliferation Z-score within cell line (SUM149PT) | proliferation Z-score within cell line (SUM159PT) | proliferation Z-score within cell line (SUM185PE) | proliferation Z-score within cell line (SUM229PE) | proliferation Z-score within cell line (SUM52PE) |
| --- | --- | --- | --- | --- | --- | --- | --- | --- | --- | --- | --- | --- | --- | --- | --- | --- | --- | --- | --- | --- |
| CCc1cncnc1N1CCN(Cc2nc3ccc(C(F)(F)F)cc3[nH]2)CC1 | 0.44 | 0.606 | -0.723 | 0.641 | -1.72 | 0.352 | -1.99 | 0.271 | 0.225 | 0.796 | -1.92 | 0.672 | 0.728 | 0.569 | 0.938 | 0.787 | -0.969 | 0.662 | 0.897 | 1.21 |
| COc1cc2nccc(Oc3ccc(NC(=O)Nc4cc(C)on4)c(Cl)c3)c2cc1OC [Tivozanib (AV-951)] | 0.678 | 0.901 | 0.775 | 1.78 | 0.754 | 0.377 | 0.576 | 0.489 | 0.612 | 0.647 | 0.381 | 0.81 | 0.544 | 1.28 | -0.803 | 0.813 | 0.463 | -0.83 | 1.52 | -2.1 |
| Nc1cc(C(F)(F)F)c(-c2cc(N3CCOCC3)nc(N3CCOCC3)n2)cn1 [BKM120 (NVP-BKM120, Buparlisib)] | -1.15 | -1.17 | -0.966 | -1.08 | -1.63 | -0.376 | -1.51 | -1.78 | -0.734 | -1.91 | -1.44 | -2.14 | -1.14 | -0.758 | -1.07 | -0.955 | -1.88 | -1.83 | -1.37 | -1.12 |
| N#C/C(=C(/N)Sc1ccc(N)cc1)c1ccccc1C(F)(F)F | -0.552 | 0.654 | 0.224 | -0.94 | -0.11 | 0.454 | 0.482 | 0.333 | 0.124 | -0.257 | 0.1 | 1.15 | 0.399 | 1.24 | -0.467 | 0.036 | 0.449 | -0.259 | -0.877 | -0.3 |
| COc1cccc(-c2cc(=O)c3ccccc3o2)c1N | 0.771 | 0.725 | 0.601 | 0.749 | -0.0542 | 0.538 | 0.257 | 0.797 | 0.906 | 0.553 | -0.271 | 0.638 | 0.603 | 1.2 | 1.06 | 0.788 | 0.47 | 0.974 | 0.587 | 1.03 |
| Cc1cc(N2CCOCC2)cc2[nH]c(-c3c(NCC(O)c4cccc(Cl)c4)cc[nH]c3=O)nc12 (stereo not given) | 0.443 | 0.345 | -0.187 | -0.616 | 0.411 | 0.374 | 0.509 | 0.301 | -0.848 | -1.28 | 0.4 | 0.684 | -0.0956 | -0.616 | -1.22 | -1.61 | 0.401 | -1.11 | -1.05 | -0.408 |
| CC(=O)Nc1nc(C)c(-c2ccc(Cl)c(S(=O)(=O)NCCO)c2)s1 | -0.121 | -0.0841 | 0.444 | -0.13 | 0.567 | 0.394 | 0.306 | -0.228 | 0.524 | 0.0643 | 0.204 | -0.977 | 0.401 | -0.0154 | 0.0559 | 0.352 | 0.753 | -0.75 | 0.0373 | 0.386 |
| CNC(=O)c1ccccc1Sc1ccc2c(/C=C/c3ccccn3)n[nH]c2c1 [Axitinib] | 0.42 | 0.8 | 0.446 | 0.847 | 0.582 | 0.334 | 0.456 | 0.564 | 0.236 | 0.313 | 1.06 | 0.74 | -0.541 | 0.655 | -1.06 | 0.772 | 0.42 | -1.64 | 0.453 | -2.08 |
| Cc1c(NC(=O)OC[C@@H]2COCCN2)cn2ncnc(Nc3ccc4c(cnn4Cc4cccc(F)c4)c3)c12 | 0.101 | 0.529 | -1.84 | -1.76 | -1.68 | 0.512 | -1.04 | 0.509 | 0.998 | 0.814 | -1.75 | -0.675 | -0.614 | -1.07 | 0.511 | -0.0899 | -2.55 | 0.709 | -0.215 | 0.976 |
| CCOc1cc2ncc(C#N)c(Nc3ccc(F)c(Cl)c3)c2cc1NC(=O)/C=C/CN(C)C [Pelitinib (EKB-569)] | -1.45 | -0.296 | -0.745 | -1.61 | -0.984 | 0.35 | 0.547 | 0.384 | -1.13 | -1.37 | -0.81 | -1.03 | -1.63 | 0.373 | -0.714 | -1.93 | 0.653 | 0.0434 | -1.56 | -0.288 |
| COc1cc(OC)c(/C=C/S(=O)(=O)Cc2ccc(OC)c(NCC(=O)O)c2)c(OC)c1 | -1.7 | -2.56 | -0.13 | -2.02 | 0.579 | -2.85 | 0.677 | -2.19 | -1.91 | -1.77 | -0.991 | -2 | -1.74 | -2.59 | -1.92 | -2.24 | -0.321 | -1.82 | -1.31 | -1.3 |
| Cc1ccc(NC(=O)c2cccc(C(C)(C)C#N)c2)cc1Nc1ccc2ncn(C)c(=O)c2c1 | 0.791 | 0.584 | 0.952 | 0.168 | 0.856 | 0.551 | 0.949 | 0.329 | -1.2 | -1.06 | 0.86 | 1.18 | 0.941 | 1.14 | 0.652 | 0.256 | 0.595 | 0.0584 | 0.287 | -1.03 |
